In PubChem BioAssay AID686978 (National Center for Advancing Translational Sciences (NCATS), 2013):
Where “and” joins values, the source holds several entries; their conditions need not be identical. Identical values can stand only once. Out of some 420,000 compounds screened, about 64,000 (15%) were called active. The shares of active, inactive and inconclusive entries below differ from those in the screen. Calls come from the whole dose curve; as a rule, active = well fitted inhibition curve with a large enough effect; inconclusive = small, poorly fitted or top-dose-only effect; inactive = flat fitted curve, though single readings scatter. A potency beside an inconclusive call is a rough fit, not a confirmed value.

assay: qHTS for Inhibitors of human tyrosyl-DNA phosphodiesterase 1 (TDP1): qHTS in cells in absence of CPT; settings: DT40 Tdp1-/- hTDP1 cells, no CPT, ATP luminescence, 48 h; activity change, negative = growth inhibition: at 46.2 µM (top of the series) unless noted; note: nearly all actives have a fitted effect of over 55% in size
In short: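 Compound effects on proliferation are scored in DT40 Tdp1-/-;hTDP1 cells in the absence of CPT. ATP levels (CellTiter-Glo luminescence) are recorded after a ≥48 hr, 37 °C incubation.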
% is set by controls: 0 for no effect and ±100 for the full control effect; potency is the fitted concentration of half-maximal effect; tags give direction and shape of the fitted curve.

Structure (SMILES)	activity change, negative = growth inhibition	Potency
CC1(C(=O)Nc2ccc(F)cc2F)CCN1C(=O)Cc1ccccc1Cl (centres undefined)	inactive: -20.1%	–
Oc1ccc(C=Nc2ccccc2-c2nc3ccccc3[nH]2)cc1	inactive: -24.7%	–
O=C(c1ccc(CN2CCOCC2)cc1)N1CCN(c2cccc(Cl)c2)CC1	–	inconclusive: 29.1 µM [inhibitor, single point]
CCC1CCc2nc3sc(C(=O)Nc4ccc(F)c(Cl)c4)c(N)c3cc2C1 (centres undefined)	–	inconclusive: 13 µM [inhibitor, partial curve]
COc1cc2nc(CN3CCC(Cc4ccccc4)CC3)[nH]c(=O)c2cc1OC	–	inconclusive: 29.1 µM [inhibitor, single point]
COc1ccccc1CNC(=O)CSc1ncc2c(n1)-c1ccc(Cl)cc1N(Cc1ccccc1)S2(=O)=O	–	inconclusive: 16.4 µM [inhibitor, single point]
COc1ccc(N(CC(=O)N2CCN(Cc3ccc4c(c3)OCO4)CC2)S(C)(=O)=O)cc1OC	–	inconclusive: 29.1 µM [inhibitor, single point]
COc1ccc2nc(-c3ccc(N)cc3)[nH]c2c1	–	inconclusive: 20.6 µM [inhibitor, single point]
Nc1nc(NCc2cccc(Cl)c2)c2[nH]cnc2n1	–	inconclusive: 17.8 µM [inhibitor, single point] and inconclusive: 35.5 µM [inhibitor, single point]
COc1ccc(NC(=O)C(c2ccc(C)cc2)N(C)C(=O)Cc2cccs2)cc1 (centres undefined)	–	inconclusive: 29.1 µM [inhibitor, single point]
CC(=O)Nc1ccc(S(=O)(=O)Nc2ccc(=O)n(Cc3ccc(Cl)c(Cl)c3)c2)cc1	inactive: -0.613%	–
Cc1cccc(NC(=O)Nc2ccc3c(c2)N(C)C(=O)CS3)n1	–	inconclusive: 32.6 µM [inhibitor, single point]
CCc1ccccc1NC(=O)c1ccc(-n2c(C)ccc2C)cc1	–	inconclusive: 23.1 µM [inhibitor, single point]
COc1ccc(-c2ccc3c(N)c(C(=O)c4cccc(OC)c4)sc3n2)cc1	–	inconclusive: 25.9 µM [inhibitor, single point]
Cc1c(NC(=O)CSc2ccc3c(c2)OCCO3)c(=O)n(-c2ccccc2)n1C	–	inconclusive: 29.1 µM [inhibitor, single point]
CN(CCc1cnn(C)c1)Cc1cn[nH]c1-c1ccc(-c2ccccc2)cc1	–	inconclusive: 29.1 µM [inhibitor, single point]
CCCN(CCC)C(=O)c1cc(S(=O)(=O)N2CCCCC2)c[nH]1	inactive: -17.7%	–
O=C(NCc1ccccc1Cl)c1ccc2c(=O)n(CC3CCCO3)c(=S)[nH]c2c1 (centres undefined)	–	inconclusive: 23.1 µM [inhibitor, single point]
CC(C)(C)c1ccc(OCCn2ccccc2=O)cc1	–	inconclusive: 29.1 µM [inhibitor, single point]
CC1(c2nnc(-c3ccncc3)o2)CC(c2ccccc2)=NO1 (centres undefined)	inactive: -18.5%	–
Cc1ccc(OCC(O)CNS(=O)(=O)c2ccccc2C(=O)N2CCCCC2)cc1 (centres undefined)	–	inconclusive: 29.1 µM [inhibitor, single point]
O=C(O)C1CC=CCC1C(=O)Nc1ccccc1C(=O)N1CCN(c2ccc(F)cc2)CC1 (centres undefined)	–	inconclusive: 25.9 µM [inhibitor, single point]
Cc1ccc2c(c1)[C@H]1[C@H](CO2)[C@H](c2ccccc2)[C@]2(C)C(=O)Nc3ccc(F)cc3C(=O)N12	–	active: 20.6 µM

Structure (SMILES)	activity change, negative = growth inhibition	Potency
CCCCC[C@@H](C)N1C[C@H](COCc2ccccc2)Oc2cc(N3CC[C@@H](O)C3)ccc2S1(=O)=O	–	active: 20.6 µM
CC(=O)c1ccc(OCC(=O)N(CCC2=CCCCC2)c2c(N)n(Cc3ccccc3)c(=O)[nH]c2=O)cc1	–	inconclusive: 25.9 µM [inhibitor, single point]
Clc1ccc(CN2CCC(Cc3ccccc3)CC2)cc1	–	inconclusive: 29.1 µM [inhibitor, single point]
CN(C)S(=O)(=O)c1cccc(-c2nnc(SCc3cc(Cl)cc4c3OCOC4)n2N)c1	–	inconclusive: 29.1 µM [inhibitor, single point]
CCc1ccc(NC(=S)N2CCN(c3cccc(OC)c3)CC2)cc1	inactive: -17.7%	–
O=C(CN1CCOCC1)Nc1cc(Cl)ccc1Cl	inactive: -6.59%	–
CCOc1ccc(N2C(=O)CC(SC(=NC)Nc3ccc4c(c3)OCO4)C2=O)cc1 (centres undefined)	–	inconclusive: 29.1 µM [inhibitor, partial curve]
COC(=O)c1ccc(CSc2nnc(Nc3ccccc3OC)s2)o1	–	inconclusive: 25.9 µM [inhibitor, single point]
CCOC(=O)c1sc(=S)n(-c2ccccc2)c1N(C(C)=O)C(C)=O	–	inconclusive: 11.6 µM [inhibitor, single point]
COc1cc(/C=N/O)cc(Br)c1OS(=O)(=O)c1ccc(C)cc1	–	inconclusive: 29.1 µM [inhibitor, single point]
O=C(COc1ncnc2scc(-c3ccc(Cl)cc3)c12)NCc1ccco1	–	inconclusive: 29.1 µM [inhibitor, single point]
COc1ccc(/C=N\NC(=O)c2sc(N)nc2C)cc1OC	inactive: -17.5%	–
O=C(CN(Cc1ccccc1F)S(=O)(=O)c1ccc(Cl)cc1)NCCCO	inactive: -16.7%	–
NNC(=O)CSCc1nc(-c2ccc(Cl)cc2)cs1	–	inconclusive: 29.1 µM [inhibitor, single point]
CC(=O)N1CCN(c2ccc(NC(=O)c3cc4ccccc4o3)cc2)CC1	–	inconclusive: 20.6 µM [inhibitor, single point]
O=C(Cn1c(=O)c2cc(Cl)ccc2n2nncc12)Nc1ccccc1	inactive: -14.6%	–
O=C(NCCc1ccc(Cl)cc1)c1cnccn1	inactive: 14%	–
COC(=O)c1ccc(C(=O)NC(=S)Nc2nc3c(s2)CCCC3)cc1	–	active: 16.4 µM
O=C(OCCOc1ccc(F)cc1)c1ccc(S(=O)(=O)N2CCCC2)cc1	–	active: 2.31 µM
CCOc1ccccc1C(=O)N1CC(=O)Nc2ccc(Cl)cc2C1c1ccccc1 (centres undefined)	–	inconclusive: 29.1 µM [inhibitor, single point]
CC(=O)c1ccccc1NC(=O)CCCNC(=O)c1ccc(Cl)cc1	–	inconclusive: 32.6 µM [inhibitor, single point]
COc1ccc(CCNC(=O)[C@H](C)N2C(=O)N3CCc4c([nH]c5ccccc45)[C@@]3(C)C2=O)cc1	–	active: 16.4 µM
C=CCC(CC=C)(CNC(=O)C(=O)Nc1cccc(C(F)(F)F)c1)c1ccccc1	–	active: 20.6 µM

Structure (SMILES)	activity change, negative = growth inhibition	Potency
CCOC(=O)c1c(NC(=S)Nc2ccccc2C)sc2c1CCC2	inactive: -3.31%	–
O=C(NCCc1ccccc1)c1cc2sccc2n1Cc1ccccc1	–	inconclusive: 20.6 µM [inhibitor, single point]
CC(=O)Nc1cc(C(=O)NCc2ccc(C)cc2)ccc1Sc1ccc(C)cc1	–	active: 23.1 µM
COc1cc(CCC(=O)OCC(=O)Nc2ccccc2C(C)C)cc(OC)c1OC	inactive: 14.7%	–
NC(=S)NNC(=O)c1cccc(Cl)c1	–	inconclusive: 18.4 µM [inhibitor, single point]
O=C(CC(c1cccs1)N1Cc2ccccc2C1=O)Nc1ccc(F)c(Cl)c1 (centres undefined)	–	inconclusive: 18.4 µM [inhibitor, partial curve, poor fit]
COc1ccc(CCN(Cc2cccs2)S(=O)(=O)c2ccc(S(=O)(=O)N3CCCCCC3)cc2)cc1OC	–	active: 9.2 µM
O=C1c2ccccc2C(Nc2ccc(Cl)cn2)N1c1ccccn1 (centres undefined)	–	inconclusive: 29.1 µM [inhibitor, single point]
O=[N+]([O-])c1cccc(CNc2ccc3c(c2)CCC3)c1	–	inconclusive: 20.6 µM [inhibitor, single point]
CC(CNC(=O)Cn1ccc2cc(S(=O)(=O)N3CCCCCC3)ccc21)c1ccccc1 (centres undefined)	–	inconclusive: 29.1 µM [inhibitor, single point]
COc1ccc(Cl)cc1NC(=O)CN(C)S(=O)(=O)c1ccc2c(c1)CCCN2C(C)=O	–	active: 8.2 µM
COc1ccc(CN2CCN(CCc3ccccc3)C(CCO)C2)c(O)c1 (centres undefined)	inactive: -13.7%	–
O=C(CC1C(=O)NCCN1Cc1cccc(C(F)(F)F)c1)NCCc1cnccn1 (centres undefined)	inactive: -4.19%	–
COc1ccc(/C=C/C(=O)Nc2c(C)nn(C)c2C)cc1COc1ccc(Cl)cc1Br	–	inconclusive: 23.1 µM [inhibitor, partial curve]
COc1cc(/C=C/C(=O)OCC(=O)Nc2ccccc2Sc2ccc(Cl)cc2)ccc1O	–	inconclusive: 23.1 µM [inhibitor, single point]
CCc1ccc(-c2nc(CN3CCCC(C(=O)N4CCN(c5cc(Cl)ccc5C)CC4)C3)c(C)o2)cc1 (centres undefined)	–	active: 3.26 µM
COc1ccc(C2=NN(c3ccccc3)C(c3ccc(OC)c(OC)c3)C2)cc1 (centres undefined)	inactive: -10.8%	–
O=C(Nc1ccc(Cl)cc1C(=O)Nc1ccc(Br)cn1)c1ccco1	–	inconclusive: 25.9 µM [inhibitor, single point]
O=C(C1CCN(c2nnc(-n3cccc3)s2)CC1)N1CCc2ccccc2C1	–	inconclusive: 20.6 µM [inhibitor, single point]
COc1ccc(-c2onc(C)c2C)cc1S(=O)(=O)NCC1CCN(Cc2ccccc2F)CC1	–	inconclusive: 18.4 µM [inhibitor, single point]
COc1ccc(-c2ccc(C(=O)N3CCN(C)CC3)c3occc23)c(C)c1	–	active: 6.51 µM
COc1ccc(-c2noc(-c3cccnc3NCc3ccco3)n2)cc1	–	inconclusive: 16.4 µM [inhibitor, single point]
Cc1cccc(-n2c(=O)c3c(c4cc(C)ccc4n3C)n(CC(=O)NCCC3=CCCCC3)c2=O)c1	–	inconclusive: 6.51 µM [inhibitor, partial curve]
